# Source: the supplement of paper PMC3334620
# Whole data set: some 33,000 sequences, median “E-score (-0.5 to 0.5)” near -0.01, cut for the highest 2% near 0.26. The list shows a part of the results.
# Molecular target: Ste12 (UniProt P13574)
# Test: PBM E-score (8-mer binding enrichment) (E-score (-0.5 to 0.5)); higher = stronger / more preferred TF binding; most listed sequences are background and not binding sites
# Details: protein concentration: 200 nM; construct: GST-DNA-binding domain
# How it was run: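 PURExpress in vitro transcription/translation supplied GST-tagged yeast transcription factors, either full-length or DNA-binding domain. Applied at about 100-200 nM to universal all-10-mer Agilent arrays double-stranded by primer extension, the bound protein was detected with fluorescent anti-GST. E-scores, modified Wilcoxon-Mann-Whitney statistics, were given by the Universal PBM Analysis Suite to ungapped eight-base words pooled with their reverse complements after masliner normalisation.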
row,Sequence,PBM E-score
1,CATCTAGA,-0.0143
2,AGGTCGTC,-0.0589
3,AATCACAT,-0.0806
4,AAGTACTT,0.0324
5,CAGATAGC,-0.131
6,GGCCGGGA,-0.0864
7,TACGTCTA,-0.0447
8,GGTTCTTA,0.139
9,AGATCACT,0.0283
10,GCTGCGAA,0.06
11,CGACACAA,0.0706
12,ACACAGCC,0.0129
13,CAGTTGAG,-0.132
14,GCCTCGGA,-0.0162
15,ACACACAT,0.155
16,GACTCTCA,-0.0399
17,GAGAGCAC,-0.108
18,GACAGTAC,-0.101
19,CGAGAACC,0.0434
20,CCCCTAGG,-0.254
21,CTAAGAGA,-0.059
22,GTATGGTA,0.0197
23,TATAGTCA,-0.0254
24,CCAGACTC,-0.278
25,AAGCTGAG,-0.135

row,Sequence,PBM E-score
1,GCTAGATA,-0.133
2,GACACGCA,-0.0396
3,ACTAAAAG,0.1
4,AAGTTACG,0.0247
5,GCAGAAAC,0.108
6,AGATCGCG,-0.154
7,CCAGGACG,-0.0827
8,GCAGGTCC,-0.0337
9,CCACGAAC,0.148
10,ACATGACG,0.0117
11,ATTGTAAC,0.216
12,CAGGACCC,-0.155
13,CGCAGTGA,0.0576
14,GTAGATAC,-0.00886
15,CACCACTA,0.0375
16,CGCAATGC,-0.0676
17,ACCACAGT,-0.0395
18,ATGTTATG,0.103
19,TCAAAGGA,0.0313
20,AAGACGGC,-0.255
21,GAGTGCAA,0.147
22,GAATCTAC,0.0983
23,CTTAGTTC,-0.0322
24,ACCGTTCT,-0.0398
25,CCCGTCGC,-0.0127

row,Sequence,PBM E-score
1,AAACACCC,0.223
2,ACGGAATA,0.0471
3,ACGCCGGA,0.033
4,GTACGATA,0.0244
5,AACGTTTA,0.00807
6,GCCACTCC,-0.0101
7,ATTCACAG,0.108
8,ATGAGAGG,-0.0785
9,AGCCCGTA,-0.159
10,ACGAAGAA,0.0942
11,AGAGCTTG,0.0151
12,AAATCCAC,-0.0239
13,GTTGCACA,-0.154
14,CCAACTGA,-0.0284
15,CGTCATAA,0.143
16,AAACATGT,0.301
17,CCCCAAGG,-0.139
18,CTGCTTCA,-0.099
19,CAAAATTA,0.247
20,CGAATGAA,0.084
21,CTTTTGCC,0.035
22,GGACAGCA,-0.198
23,ATTTCCTG,0.124
24,GAGACCCC,-0.00992
25,CCAAGTAG,-0.111

row,Sequence,PBM E-score
1,CCTGGTCG,-0.228
2,CGAGATTC,-0.0528
3,CTGGCTGC,-0.11
4,CGTCCCTA,-0.127
5,CATGATAC,0.242
6,ATTTTTTC,0.252
7,ATATACTG,0.0976
8,AGGCAAGC,-0.0733
9,CCCGTCGA,0.0198
10,GATAAAAA,0.277
11,AAAGTGTC,-0.105
12,ACTATGGA,-0.0706
13,AATTTTGA,0.145
14,GATCAGTA,-0.144
15,CCAAGGAA,-0.12
16,AGACTTTG,-0.156
17,AGGGGGGG,-0.276
18,ACTGCTAG,-0.23
19,CTCGTGTA,0.0556
20,GCGATCGC,0.209
21,GGAGGTAA,0.0954
22,ATGTGTAG,0.0503
23,ACCTCATA,-0.0725
24,AGAGCTCA,-0.194
25,CTCATAAA,-0.00236

row,Sequence,PBM E-score
1,ATACCTGA,0.0692
2,CCTAGACA,-0.279
3,CGATTTGC,0.0114
4,ATCTAGAG,-0.128
5,ATCTATGA,0.107
6,AGGCCCCG,-0.19
7,AGTGCAAT,0.0425
8,CCTCGCGC,-0.0844
9,CGAAACTA,0.091
10,GGTCATGA,-0.0542
11,CAGGTGAC,-0.0206
12,CGGTCCTC,-0.0996
13,CCGGCGCA,0.0234
14,CAAGACAC,0.0922
15,CGTACTCA,-0.00582
16,CGCGACGC,0.115
17,TCAAGCGA,0.156
18,ATTGGTCG,-0.124
19,GGGACAGA,-0.0252
20,GATTACAA,0.025
21,CCCCCCAG,-0.309
22,CGCTGTGA,-0.0234
23,AGCCGGTA,-0.0538
24,ACAATGAA,0.145
25,GGCTTGAC,-0.188

row,Sequence,PBM E-score
1,AAACGATA,0.279
2,ATTTTAGG,0.198
3,ATGGGAAG,-0.0232
4,AACTTGTG,0.168
5,AGAATCTA,0.00504
6,CGTCCAAA,0.22
7,ATTAATTG,0.237
8,ACGTTCCC,-0.37
9,CCAATAGC,-0.207
10,CTGGACAG,-0.143
11,CACACCTC,0.0822
12,AATGAGGA,-0.073
13,ACAGCATC,-0.0671
14,ATATGTTA,-0.0206
15,TACCCTGA,-0.148
16,CTGACGAC,-0.219
17,CTTGCAAG,0.225
18,ATAGCGTA,0.0271
19,AGACGCGA,-0.0188
20,CTTGCGTA,-0.214
21,ACATCCCG,0.0117
22,AAACACAA,0.291
23,ACACGCCG,0.132
24,GTGCCCGA,-0.158
25,AAGTACTG,-0.151

row,Sequence,PBM E-score
1,AGCAAGAC,0.0279
2,ACTTGTCA,-0.0229
3,CGGAGGAC,-0.0846
4,AACGGGTA,0.161
5,AAAAGTAG,0.134
6,CACCGACA,-0.0645
7,AGAGTGAG,-0.00606
8,CTGCCACA,-0.0728
9,CGCAAATC,0.152
10,AAGCCTGT,-0.0204
11,CGACTGTC,-0.0965
12,CGCCGCAC,-1e-05
13,CGCGCCCG,-0.0271
14,ACGCTCAA,0.0259
15,AGCACAAG,-0.0936
16,AATTTCCC,-4e-05
17,AGACCGGA,0.0341
18,ATCCCCTA,-0.0687
19,AACCGGTC,0.0268
20,CTTGAAAA,0.157
21,AGATCCGA,0.109
22,CGAGAGCA,0.00901
23,ATTTCCGC,0.139
24,CAGGCTAA,-0.123
25,CGAAAACA,0.0416

row,Sequence,PBM E-score
1,GTTACCTA,-0.134
2,CATTAGCC,-0.101
3,AGCCGACC,-0.188
4,CCACTGAA,0.0609
5,TCACCAAA,0.177
6,CTTTTAGC,0.0612
7,CGTTGAAA,0.185
8,ACGAGATG,-0.023
9,ATGCGATG,0.00552
10,GCGTAAAA,0.163
11,GCTCTCTA,-0.256
12,CTGGCCAG,-0.0692
13,GGATGATA,0.0634
14,AACTCTAA,0.0259
15,CTCTAAAC,0.0484
16,GCGAGCAA,-0.0697
17,CACTGAGA,-0.104
18,AAATGAGA,0.0747
19,ACACATTC,0.0383
20,AAGTCATG,0.0671
21,CGGCAGAG,-0.124
22,AATCGTTG,-0.0757
23,CCGCAACC,-0.0389
24,AGAGGGAA,-0.21
25,TGCATACA,-0.139

row,Sequence,PBM E-score
1,CGGTACTA,-0.0556
2,GTAGTCTA,-0.168
3,CTACTAAG,-0.0685
4,AATGTTCT,-0.0305
5,AGAGCATG,-0.125
6,ATCCCGAA,0.0596
7,TAAATTGA,0.288
8,AGTAAACT,0.0484
9,AAATAGGT,0.208
10,GCGGACGA,0.0443
11,ACCTGAAG,0.023
12,AGCGCGTA,0.0668
13,ACGCTCTC,-0.122
14,TCATATGA,0.177
15,AGAGTGAC,-0.237
16,GTAATTAA,0.0563
17,GGTATCTA,0.0708
18,CTAACGTA,0.0416
19,ACCCTTGC,-0.0913
